# Laboratory results from the supplement of paper PMC12217912.
# The other results are listed elsewhere or left out. The full chains were built here from the parent and the listed change. Inactive controls read about 0.05.
# B1: TEV protease; numbered along this chain (parent)
# chain: MGESLFKGPRDYNPISSSICHLTNESDGHTTSLYGIGFGPFIITNKHLFRRNNGTLVVQSLHGVFKVKDTTTLQQHLVDGRDMIIIRMPKDFPPFPQKLKFREPQREERICLVTTNFQTKSMSSMVSDTSCTFPSGDGIFWKHWIQTKDGQCGSPLVSTRDGFIVGIHSASNFTNTNNYFTSVPKNFMELLTNQEAQQWVSGWRLNADSVLWGGHKVFMVKPEEPFQPVKEATQL
# Variants of: B1
# Test: raw area under fraction-flipped curve 0-4 h after induction (AUC4h, not background-subtracted), DNA-recorder readout of cleavage of the substrate (dimensionless); higher = more cleavage of the substrate by the protease variant
# Conditions: temperature: 34 °C; time window: 0-4 h after rhamnose induction
# Protocol: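 In vivo DNA recorder in E. coli TOP10(DE3) ΔrhaA at 34 °C. Each TEVp single-site mutant (parent TEVp 0) is paired with a single-site variant of the 7-mer TEVs (canonical ENLYFQ|S). The substrate sits between flexible linkers in a Bxb1-sfGFP-TEVs-SsrA fusion, so cleavage stabilises Bxb1 and speeds flipping of a recombination array, read by NGS. The value is the raw area under the fraction-flipped curve over 0-4 h after rhamnose induction (AUC4h), with ≥20 reads per time point. It is not background-subtracted; inactive controls average about 0.047.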
# 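Further: Bxb1 expression induced with 0.2% (w/v) L-rhamnose at OD600 near 0.5, cultures sampled hourly, flipped fraction per protease–substrate barcode pair counted by paired-end Illumina sequencing.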
variant,measurement,value
Q118C,area with substrate ENLYDQS,0.0628
same,area with substrate ENLYEQS,0.061
same,area with substrate ENLYHQS,0.0594
same,area with substrate ENLYMQS,0.0715
same,area with substrate ENLYPQS,0.0692
same,area with substrate ENLYQQS,0.0691
T119A,area with substrate ENLYDQS,0.0615
same,area with substrate ENLYEQS,0.0706
same,area with substrate ENLYGQS,0.0595
same,area with substrate ENLYIQS,0.099
same,area with substrate ENLYKQS,0.0634
same,area with substrate ENLYLQS,0.0945
same,area with substrate ENLYNQS,0.0726
same,area with substrate ENLYPQS,0.0793
same,area with substrate ENLYQQS,0.0643
same,area with substrate ENLYRQS,0.0899
same,area with substrate ENLYVQS,0.123
same,area with substrate ENLYWQS,0.0799
same,area with substrate ENLYYQS,0.08
T119C,area with substrate ENLYDQS,0.0704
same,area with substrate ENLYIQS,0.124
same,area with substrate ENLYNQS,0.0587
same,area with substrate ENLYTQS,0.105
S121F,area with substrate ENLYDQS,0.0593
same,area with substrate ENLYGQS,0.0814
same,area with substrate ENLYHQS,0.0552
same,area with substrate ENLYIQS,0.12
same,area with substrate ENLYKQS,0.0515
same,area with substrate ENLYMQS,0.0692
same,area with substrate ENLYQQS,0.0523
same,area with substrate ENLYWQS,0.083
same,area with substrate ENLYYQS,0.0874
S124C,area with substrate ENLYDQS,0.0611
same,area with substrate ENLYEQS,0.0447
same,area with substrate ENLYGQS,0.0597
same,area with substrate ENLYHQS,0.0701
same,area with substrate ENLYKQS,0.0684
same,area with substrate ENLYNQS,0.0713
same,area with substrate ENLYPQS,0.0691
same,area with substrate ENLYRQS,0.063
same,area with substrate ENLYSQS,0.0658
same,area with substrate ENLYTQS,0.0974
same,area with substrate ENLYVQS,0.137
same,area with substrate ENLYYQS,0.0699
S124Y,area with substrate ENLYDQS,0.0479
same,area with substrate ENLYHQS,0.0578
same,area with substrate ENLYIQS,0.116
same,area with substrate ENLYKQS,0.0655
same,area with substrate ENLYNQS,0.0781
same,area with substrate ENLYRQS,0.0682
C131H,area with substrate ENLYDQS,0.0387
same,area with substrate ENLYHQS,0.0796
same,area with substrate ENLYWQS,0.0682
C131I,area with substrate ENLYDQS,0.0538
same,area with substrate ENLYEQS,0.07
same,area with substrate ENLYGQS,0.0593
same,area with substrate ENLYHQS,0.0692
same,area with substrate ENLYPQS,0.0695
same,area with substrate ENLYQQS,0.0726
same,area with substrate ENLYRQS,0.0495
same,area with substrate ENLYVQS,0.0885
same,area with substrate ENLYYQS,0.0495
D137A,area with substrate ENLYDQS,0.0563
same,area with substrate ENLYEQS,0.0685
same,area with substrate ENLYGQS,0.0754
same,area with substrate ENLYHQS,0.0761
same,area with substrate ENLYIQS,0.0798
same,area with substrate ENLYKQS,0.0281
same,area with substrate ENLYNQS,0.0708
same,area with substrate ENLYQQS,0.0627
same,area with substrate ENLYVQS,0.14
same,area with substrate ENLYYQS,0.0786
W141N,area with substrate ENLYDQS,0.0386
same,area with substrate ENLYKQS,0.0449
same,area with substrate ENLYNQS,0.0598
same,area with substrate ENLYPQS,0.0529
D149I,area with substrate ENLYDQS,0.0617
same,area with substrate ENLYEQS,0.075
same,area with substrate ENLYHQS,0.0507
same,area with substrate ENLYKQS,0.0542
same,area with substrate ENLYNQS,0.0549
same,area with substrate ENLYQQS,0.0585
same,area with substrate ENLYRQS,0.0537
same,area with substrate ENLYYQS,0.0588
G153C,area with substrate ENLYDQS,0.058
same,area with substrate ENLYEQS,0.0546
same,area with substrate ENLYGQS,0.0457
same,area with substrate ENLYHQS,0.0517
same,area with substrate ENLYIQS,0.0483
same,area with substrate ENLYKQS,0.0429
same,area with substrate ENLYNQS,0.06
same,area with substrate ENLYPQS,0.0559
same,area with substrate ENLYRQS,0.0691
same,area with substrate ENLYSQS,0.04
same,area with substrate ENLYTQS,0.0645
same,area with substrate ENLYVQS,0.136
same,area with substrate ENLYWQS,0.0444
G153L,area with substrate ENLYDQS,0.0164
same,area with substrate ENLYGQS,0.0484
same,area with substrate ENLYKQS,0.0488
same,area with substrate ENLYMQS,0.0616
same,area with substrate ENLYNQS,0.0552
same,area with substrate ENLYPQS,0.0586
same,area with substrate ENLYVQS,0.0637
same,area with substrate ENLYYQS,0.0478
S154A,area with substrate ENLYDQS,0.0659
same,area with substrate ENLYGQS,0.062
same,area with substrate ENLYHQS,0.0693
same,area with substrate ENLYKQS,0.0588
same,area with substrate ENLYMQS,0.0824
same,area with substrate ENLYRQS,0.0589
same,area with substrate ENLYSQS,0.0528
same,area with substrate ENLYTQS,0.0784
same,area with substrate ENLYYQS,0.063
P155G,area with substrate ENLYDQS,0.0543
same,area with substrate ENLYEQS,0.0442
same,area with substrate ENLYGQS,0.0474
same,area with substrate ENLYHQS,0.0584
same,area with substrate ENLYMQS,0.0546
same,area with substrate ENLYPQS,0.0641
same,area with substrate ENLYRQS,0.0363
same,area with substrate ENLYTQS,0.0462
same,area with substrate ENLYVQS,0.03
same,area with substrate ENLYWQS,0.0408
S158L,area with substrate ENLYDQS,0.0417
same,area with substrate ENLYEQS,0.048
same,area with substrate ENLYHQS,0.0535
same,area with substrate ENLYKQS,0.0511
same,area with substrate ENLYLQS,0.058
same,area with substrate ENLYMQS,0.0511
same,area with substrate ENLYRQS,0.0557
T159K,area with substrate ENLYDQS,0.0603
same,area with substrate ENLYEQS,0.0667
same,area with substrate ENLYGQS,0.0631
same,area with substrate ENLYHQS,0.0735
same,area with substrate ENLYIQS,0.111
same,area with substrate ENLYKQS,0.059
same,area with substrate ENLYPQS,0.0785
same,area with substrate ENLYRQS,0.0564
same,area with substrate ENLYSQS,0.06
same,area with substrate ENLYWQS,0.0955
G162N,area with substrate ENLYDQS,0.0706
same,area with substrate ENLYKQS,0.0756
same,area with substrate ENLYMQS,0.0868
same,area with substrate ENLYPQS,0.0733
same,area with substrate ENLYRQS,0.0444
F163A,area with substrate ENLYDQS,0.0792
same,area with substrate ENLYSQS,0.0651
same,area with substrate ENLYYQS,0.0667
V165I,area with substrate ENLYDQS,0.0694
same,area with substrate ENLYEQS,0.0826
same,area with substrate ENLYGQS,0.0708
same,area with substrate ENLYIQS,0.111
same,area with substrate ENLYKQS,0.0772
same,area with substrate ENLYPQS,0.0642
same,area with substrate ENLYSQS,0.0708
same,area with substrate ENLYYQS,0.0574
V165L,area with substrate ENLYDQS,0.0276
same,area with substrate ENLYEQS,0.0652
same,area with substrate ENLYNQS,0.0702
same,area with substrate ENLYSQS,0.0898
S169Y,area with substrate ENLYDQS,0.0865
same,area with substrate ENLYEQS,0.0388
same,area with substrate ENLYHQS,0.0613
same,area with substrate ENLYRQS,0.0582
